Reference: PubChem BioAssay AID504706 (National Center for Advancing Translational Sciences (NCATS), 2011)
Among all 320,000 compounds or so, about 200 (0.062%) were called active. Inconclusive means that the source gave no clear call. Such entries were picked first, then a sample of the others. Calls follow the shape of the dose curve; as a rule, active = well fitted activation curve with a large enough effect; inconclusive = small, poorly fitted or top-dose-only effect; inactive = no such curve, though single readings can be large or run the other way. Potencies of inconclusive entries are left out as doubtful fits.

Assay: qHTS assay for re-activators of p53 using a Luc reporter; also: nearly all actives have a fitted effect of over 45% in size
Settings: H1299 p53-A138V BP100-luciferase reporter, luminescence, 24 h; series mostly up to 92.2 µM
In short: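 p53-null H1299 cells stably carrying temperature-sensitive p53-A138V and a BP100-luciferase reporter were pinned with compounds (4-point, 1:5 series) and held 24 hrs at 37 deg C. Luminescence was read 10 min after detection reagent.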
Potency is read from the fitted curve at half-maximal effect; tags tell the direction and shape of the fitted curve.

SMILES	Potency
CCOc1ccccc1NC(=O)c1cc2ccccc2oc1=O	inactive
O=C(OCC(=O)N1CCc2ccccc21)c1cccnc1Cl	inconclusive [activator, partial curve, poor fit]
COCCn1nnnc1C(C(C)C)N(Cc1cccnc1)Cc1cc2cc(OC)ccc2[nH]c1=O (centres undefined)	inactive
CCCC1Nc2ccc(C(=O)O)cc2C2C=CCC12 (centres undefined)	inactive
O=C(NCc1ccccn1)Nc1cccc([N+](=O)[O-])c1	inconclusive [activator, single point]
COc1ccc(CN(C)CC(=O)Nc2ccc(SC(F)F)cc2)cc1OC	inactive
CCN(CC)c1ccc(/C=N/Nc2nc(C)cc(=O)[nH]2)c(O)c1	inconclusive [activator, partial curve, poor fit]
S=c1[nH]nc(CSc2nc3ccccc3s2)o1	inactive
O=C(NCCc1ccccc1)c1oc2ccccc2c1COc1ccccc1	inconclusive [activator, partial curve, poor fit]
Cc1onc(-c2c(F)cccc2Cl)c1C(=O)Nc1nnc(-c2ccccc2)s1	inactive
Cn1c(=O)c2cn(-c3ccc4c(c3)OCCO4)cc2n(C)c1=O	inconclusive [activator, partial curve, poor fit]
CC(=NCc1ccccc1)C1=C(O)COC1=O	inconclusive [activator, single point]
CCN(CC)S(=O)(=O)c1cccc(-c2nnc(SCC(=O)c3cc(C)n(C4CC4)c3C)o2)c1	inactive
N=C1/C(=C\c2coc3ccc(O)cc3c2=O)C(=O)N=C2SC=CN12	inactive
O=C(COc1ccc(Br)cc1Cl)NC(=S)Nc1ccccn1	inconclusive [activator, partial curve, poor fit]
O=C(Oc1c(Br)cc(C(=S)N2CCOCC2)cc1Br)c1ccc(Cl)cc1	inactive
Cc1cc(C(=O)OCC(=O)Nc2cc(S(=O)(=O)N(C)C)ccc2C)c2ccccc2n1	inactive
CC(/C=C1\SC(=S)N(CCCC(=O)Nc2ccc(C(=O)O)c(O)c2)C1=O)=C\c1ccccc1	inconclusive [activator, partial curve, poor fit]
CCOc1ccc(N2C(=O)CS/C2=C(\C(Cl)=C(Cl)Cl)[N+](=O)[O-])cc1	inconclusive [activator, single point]
O=C(NCc1ccccn1)c1ccc2nc(C3CCCCC3)oc2c1	inconclusive [activator, partial curve, poor fit]
N#CC1=C2C=Cc3ccccc3N2CCCC1=O	inconclusive [activator, partial curve, poor fit]
c1ccc(-c2n[nH]c3c2CCC3)cc1	inactive
O=C(NCc1ccccn1)c1cc2ccccc2oc1=O	inconclusive [activator, single point]
CC(NC(=O)c1ccccc1[N+](=O)[O-])C1CC2CCC1C2 (centres undefined)	inconclusive [activator, single point]
COc1ccccc1NC(=O)Cn1cc(C(=O)C2CC2)c2ccccc21	inconclusive [activator, single point]

SMILES	Potency
COc1ccc2cc(C3CC(c4ccco4)=NN3S(C)(=O)=O)c(Cl)nc2c1 (centres undefined)	inactive
O=C1c2ccccc2NC(c2ccc(-c3cccs3)o2)N1O (centres undefined)	inconclusive [activator, partial curve, poor fit]
CC(C)n1c(O)c(N=NC(=O)C2COc3ccccc3O2)c2ccccc21 (centres undefined)	inactive
O=C(Nc1ccccc1Cl)c1ccc2nccnc2c1	inconclusive [activator, partial curve, poor fit]
O=C(Cc1ccc2c(c1)OCCO2)Nc1cccc(S(=O)(=O)N2CCOCC2)c1	inconclusive [activator, single point]
COc1cc2[nH]c(=O)c(C(=O)NCCCN3CCCCC3)c(O)c2cc1OC	inactive
Cc1ccn2cc(-c3cccc(S(=O)(=O)N4CCCCC4)c3)nc2c1	inactive
COc1ccc(C2Nc3ccccc3C(=O)N2c2ccc(C)cc2)cc1Cn1cc([N+](=O)[O-])cn1 (centres undefined)	inactive
O=C(Nc1ccccn1)C1CCN(S(=O)(=O)c2ccccc2)CC1	inconclusive [activator, partial curve, poor fit]
CCCc1cc(C(=O)Nc2ccc(C)cc2)no1	inconclusive [activator, full curve, poor fit]
COC(=O)[C@@]1(C)[C@H]2C(=O)N(C)C(=O)[C@H]2[C@H]2CN=C(SCc3ccc(C#N)cc3)N21	inactive
O=C(Cc1ccccc1)Nc1nc(-c2cccs2)cs1	inconclusive [activator, partial curve, poor fit]
Cc1ccccc1C(=O)N1CCC(C(=O)N2CCCc3ccccc32)CC1	inactive
NC1=NC(=Nc2ccc(Cl)cc2)c2ccccc21	inconclusive [activator, partial curve, poor fit]
CC(C)CN1CCC(=O)N(CCOc2ccccc2)CC1	inactive
Cc1ccc(NC(=O)NCCCN2CCCC2=O)cc1Cl	inconclusive [activator, partial curve, poor fit]
COc1ccc(NC(=O)c2ccc3c(c2)OCO3)cc1Cl	inconclusive [activator, full curve, poor fit]
COc1cccc(/C=N/NC(=O)Cn2nc(C)c([N+](=O)[O-])c2C)c1O	inconclusive [activator, single point]
O=C(CC(Nc1ccc(Cl)cc1)C(=O)O)c1ccccc1 (centres undefined)	inconclusive [activator, partial curve, poor fit]
CCCCCN(C(=O)CCC(=O)OCc1cccc(C(F)(F)F)c1)c1c(N)n(CCCC)c(=O)[nH]c1=O	inactive
Cc1cccc(C(=O)NCCc2ccccc2)c1	inconclusive [activator, partial curve, poor fit]
CCCn1c(SCC(=O)Nc2c(CC)cccc2CC)nnc1C(C)C	inactive
O=C(CSc1ccc(-c2ccccn2)nn1)N1CCCC1	inactive
CN(C)c1ccc(N2CN=C3SCC(=O)N3C2)cc1	inactive
COc1ccc(-c2noc(-c3ccccc3C(=O)NCc3ccco3)n2)cc1	inactive

SMILES	Potency
COCCn1c(-c2cccs2)nc2nc3ccccc3nc21	inactive
CC(=O)N1N=C(c2ccc(C)cc2)OC1c1ccc(C(C)C)cc1 (centres undefined)	inconclusive [activator, full curve, poor fit]
O=C(N/N=C/c1cccs1)c1ccccn1	inconclusive [activator, full curve, poor fit]
CCCc1ccc(-c2cc(C(=O)N/N=C/c3ccc([N+](=O)[O-])o3)c3ccccc3n2)cc1	inconclusive [activator, full curve, poor fit]
COc1ccc(OCC(NS(=O)(=O)c2ccc(-n3cnnn3)cc2)C(C)C)cc1 (centres undefined)	inactive
N#C/C(=C\c1ccc(OCc2ccc(Br)cc2)cc1)C(=O)Nc1cccc(C(=O)O)c1	inconclusive [activator, partial curve, poor fit]
Cc1ccc(NC(=O)c2ccc(OC(F)F)cc2)cc1S(=O)(=O)N(C)C	inconclusive [activator, single point]
COc1ccc(-c2csc(N)n2)cc1	inconclusive [activator, partial curve, poor fit]
CN1CCN(C(=S)c2ccc(-c3cccc(Cl)c3Cl)o2)CC1	inconclusive [activator, partial curve, poor fit]
c1ccc(-c2noc(-c3cccc4ccccc34)n2)cc1	inconclusive [activator, full curve, poor fit]
CC(=O)Oc1ccc(-c2csc(Nc3cccc(C)n3)n2)cc1	inconclusive [activator, full curve, poor fit]
COc1cc(/C=C(\C#N)c2nc3ccccc3[nH]2)cc(OC)c1O	inconclusive [activator, single point]
Cc1ccc(C(=O)CSc2nnc3n2CCCCC3)s1	inconclusive [activator, partial curve, poor fit]
Cc1cc(Br)ccc1OCC(=O)N1CCCCCC1	inactive
CCCc1cc(-c2n[nH]c(=S)n2C(C)c2ccccc2)cs1 (centres undefined)	inactive
CS(=O)(=O)N1CCN(c2ccnc3cc(Cl)ccc23)CC1	inactive
CCc1nc(SCc2ccc(Br)cc2)n[nH]1	inactive
Cc1ccccc1-c1nnc(-c2ccccc2C)o1	inconclusive [activator, partial curve, poor fit]
COc1ccc(N2C(S)=C(C#N)C(=O)NC23CCCCC3)cc1	inactive
Cn1cccc1C(=O)NNC(=O)COc1ccccc1F	inconclusive [activator, partial curve, poor fit]
CC1=C(C(=O)Nc2ccccc2C(=O)NC2CCC(C)CC2)SCCO1 (centres undefined)	inactive
O=C(COc1ccccc1F)c1ccc(O)cc1O	inconclusive [activator, single point]
O=C(C1CCC1)N1CCc2cc(S(=O)(=O)NCC3COc4ccccc4O3)ccc21 (centres undefined)	inconclusive [activator, single point]
O=C(CSc1ncnc2sccc12)NC1CCS(=O)(=O)C1 (centres undefined)	inconclusive [activator, single point]
